Reference: article PMC4336329 (PLoS ONE, 2015)
Screen size: about 310,000 compounds; about 14,000 (4.5%) showed an effect of 50% or more. The effect is printed as a negative number. The list shows a part of the results.

target: human ether-à-go-go-related gene (hERG) potassium channel (human, UniProt Q12809); assay: primary screen, population patch clamp on CHO cells stably expressing hERG
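Note: peak tail current of the secondary pulse compared with the same well before compound.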

human ether-à-go-go-related gene (hERG) potassium channel, sequence (Q12809 whole entry, looked up): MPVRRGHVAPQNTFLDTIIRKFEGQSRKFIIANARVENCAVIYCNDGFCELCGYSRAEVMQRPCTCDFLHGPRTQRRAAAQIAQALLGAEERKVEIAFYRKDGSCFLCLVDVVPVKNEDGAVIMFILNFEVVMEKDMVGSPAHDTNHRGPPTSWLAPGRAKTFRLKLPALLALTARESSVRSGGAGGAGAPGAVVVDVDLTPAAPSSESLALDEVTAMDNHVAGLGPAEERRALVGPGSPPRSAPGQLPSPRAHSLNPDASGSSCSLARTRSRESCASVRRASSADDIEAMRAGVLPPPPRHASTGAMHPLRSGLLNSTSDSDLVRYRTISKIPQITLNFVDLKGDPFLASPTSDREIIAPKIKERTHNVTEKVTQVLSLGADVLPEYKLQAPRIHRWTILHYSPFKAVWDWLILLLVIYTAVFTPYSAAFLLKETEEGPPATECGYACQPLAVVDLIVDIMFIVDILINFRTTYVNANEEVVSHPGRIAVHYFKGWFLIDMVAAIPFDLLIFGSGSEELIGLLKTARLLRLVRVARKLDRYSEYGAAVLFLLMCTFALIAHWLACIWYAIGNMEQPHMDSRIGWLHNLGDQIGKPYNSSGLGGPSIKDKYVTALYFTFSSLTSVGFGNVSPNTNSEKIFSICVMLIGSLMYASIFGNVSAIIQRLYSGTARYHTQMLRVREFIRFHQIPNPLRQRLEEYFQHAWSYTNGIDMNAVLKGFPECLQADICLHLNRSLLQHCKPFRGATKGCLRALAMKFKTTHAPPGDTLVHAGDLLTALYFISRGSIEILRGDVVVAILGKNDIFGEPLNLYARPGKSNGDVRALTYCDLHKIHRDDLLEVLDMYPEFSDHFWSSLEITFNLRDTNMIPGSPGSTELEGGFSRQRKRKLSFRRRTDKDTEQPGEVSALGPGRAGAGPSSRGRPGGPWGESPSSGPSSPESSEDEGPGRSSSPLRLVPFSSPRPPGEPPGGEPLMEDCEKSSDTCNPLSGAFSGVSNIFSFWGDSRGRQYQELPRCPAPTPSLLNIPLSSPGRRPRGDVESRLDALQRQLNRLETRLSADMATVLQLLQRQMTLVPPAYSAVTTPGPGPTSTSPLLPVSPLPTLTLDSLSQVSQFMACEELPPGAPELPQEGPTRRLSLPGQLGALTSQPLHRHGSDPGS

| SMILES | hERG current change (%, negative = inhibition) at 10uM |
| --- | --- |
| CCOC(=O)C1CCCN(S(=O)(=O)c2cc(OCC(N)=O)c(C)cc2Cl)C1 (stereo not drawn) | 6.83% |
| COc1ccc2c(=O)cc(C(=O)O)oc2c1 | 8.91% |
| COc1ccc(NC(=O)[C@@H](NC(N)=O)C(C)C)cc1Cl | 21.1% |
| O=C(CCc1nc(-c2cccs2)no1)Nc1cnc2ccccc2c1 | 40.4% |
| O=C(NCC1CCCO1)C1CCN(C2CCN(C(=O)Cc3ccsc3)CC2)CC1 (stereo not drawn) | 6.82% |
| Cc1ccc(C)c(OCCC(=O)NCCc2ccc(F)cc2)c1 | -27.2% |
| COc1ccc2oc(C(=O)N3CCN(S(=O)(=O)c4cccc([N+](=O)[O-])c4)CC3)c(C)c2c1 | 4.4% |
| COc1ccc(C2=C/C(=C\c3ccccc3OC(C)=O)C(=O)O2)cc1 | 17.6% |
| Cc1c(C(=O)N2CC(C)OC(C)C2)sc2nc(-c3ccc(F)cc3)cn12 (stereo not drawn) | -38.4% |
| O=C(Nc1nc(-c2cc3ccccc3o2)cs1)c1ccc(S(=O)(=O)N2CCCC2)cc1 | 18.3% |
| O=C(c1cc(COc2ccc(F)c(F)c2)on1)N1CCOCC1 | 5.02% |
| CCOc1ccc(CC(=O)NNC(=S)NC)cc1 | 10.9% |
| CC(NC(=O)CCNS(=O)(=O)c1ccc2c(c1)oc(=O)n2C)c1ccccc1 (stereo not drawn) | 11.1% |
| Cc1c(NC(=O)/C(C#N)=C/c2c(Oc3ccccc3)nc3ccccn3c2=O)c(=O)n(-c2ccccc2)n1C | 5.93% |
| COc1ccc(-c2nnc(N3CCOCC3)c3ccccc23)cc1 | -2.78% |
| O=C(NCC(=O)N1CCC(N2CCCCC2)CC1)C1CCCCC1 | 4.84% |
| Cc1c(CC(=O)O)c(=O)oc2cc3occ(-c4ccc(F)cc4)c3cc12 | 20.5% |
| CCC(C)N(C(=O)Cn1nnc2ccccc21)C(C(=O)Nc1ccc(F)cc1)c1cccc(OC)c1 (stereo not drawn) | -18.8% |
| COc1ccccc1OCC(=O)N/N=C1/C=C(C)CC1 | -3.82% |
| CSCC[C@H](NC(=O)OC(C)(C)C)c1nnc(SCc2ccc(F)cc2)o1 | -46.2% |
| CCOc1ncccc1C(=O)Nc1ccc(S(=O)(=O)Nc2nccs2)cc1 | 1.52% |
| Cc1ccc(S(=O)(=O)N2CCN(C(=O)CCN3C(=O)c4ccccc4C3=O)CC2)cc1C | -11.4% |

| SMILES | hERG current change (%, negative = inhibition) at 10uM |
| --- | --- |
| O=C(Nc1ccc2ccccc2n1)c1ccccc1Br | 9.14% |
| CCc1cc2cc(OC)ccc2nc1SCC(=O)Nc1cc(OC)c(OC)cc1C(=O)O | -9.97% |
| COCc1cc(C)[nH]c(=O)c1C(=O)NC12CC3CC(CC(C3)C1)C2 | 22.8% |
| Cc1ccc(C(C)(O)CS(=O)(=O)Cc2ccccc2)cc1 (stereo not drawn) | 10.5% |
| Cc1ccc(CSCC(=O)Nc2cc(S(=O)(=O)N3CCOCC3)ccc2OC(C)C)cc1 | -30.5% |
| Cc1cc(C(F)(F)F)c2c(C)nn(-c3ccccc3)c2n1 | 5.56% |
| CCCc1cc(=O)oc2cc(C)cc(OC(C)C(=O)NCc3ccccn3)c12 (stereo not drawn) | -8.3% |
| COC(=O)c1cccc(N(C(=O)c2ccco2)C(C(=O)NC2CCCC2)c2ccco2)c1 (stereo not drawn) | -14.7% |
| COc1ccc([C@H]2CC(=O)C=C(c3ccccc3)C2)cc1 | -6.86% |
| Cc1cc(Oc2ccccc2)nc(NCc2ccccc2)n1 | -9.99% |
| O=C(Nc1ccccc1N1CCCC1)c1ccc(Br)o1 | -22.4% |
| CCCCNC(=O)CC1Nc2ccccc2NC1=O (stereo not drawn) | 1.17% |
| CC/C(C)=N/Nc1nc(-c2cc3cccc(OC)c3oc2=O)cs1 | 8.59% |
| CC(C)CCC(C(=O)O)C(C)CC(=O)Nc1ccn(-c2ccccc2)n1 (stereo not drawn) | 14.6% |
| COc1cc(NC(=O)c2cccnc2SC)cc(OC)c1OC | 13.2% |
| COc1ccc(OC)c(/C=N/NC(=O)c2ccncc2)c1 | 12.2% |
| NC(=O)c1ccc[n+]([C@H]2O[C@@H](COP(=O)([O-])OP(=O)(O)OC[C@H]3O[C@@H](n4cnc5c(N)ncnc54)[C@H](O)[C@@H]3O)[C@H](O)[C@@H]2O)c1 | 12.1% |
| O=C(NN=C1CCCC1)c1cc(O)cc(O)c1 | 11.6% |
| COc1ccc(-c2cc(C(F)(F)F)n3nc(C(=O)O)nc3n2)cc1 | 18.9% |
| CC(C)[C@@H]1NC(=O)c2cc([N+](=O)[O-])cc(I)c2NCCC[C@@H](C(=O)NC(CC(=O)O)C(N)=O)NC(=O)[C@H](CO)NC1=O (stereo partly drawn) | -23% |
| COc1ccc(C(=O)NC2(C(F)(F)F)NC(=O)N(CCCc3ccccc3)C2=O)c(OC)c1OC (stereo not drawn) | -3.76% |
| Cc1nccn1Cc1ccccc1 | 25.1% |

| SMILES | hERG current change (%, negative = inhibition) at 10uM |
| --- | --- |
| CN(c1ccccc1)S(=O)(=O)c1ccc(C(=O)NNC(=O)c2ccccc2)cc1 | 2.19% |
| CC(C)OC(=O)NCCOC(=O)Nc1ccccc1Cl | 21.6% |
| CCN(C(=O)c1cc(S(=O)(=O)N2CCCC2)ccc1C)C1CCS(=O)(=O)C1 (stereo not drawn) | 0.93% |
| CCN(CC)S(=O)(=O)c1cc(NC(=O)c2cccc(N3C(=O)CCC3=O)c2)ccc1Cl | -29.3% |
| Cc1nc(SCC(=O)Nc2ccc(OCc3ccccc3)cc2)n[nH]1 | 9.02% |
| O=C1NC(=O)/C(=C/c2ccccc2Cl)N1 | 13.2% |
| O=C1NC(=O)C(c2ccccc2)(c2ccc(O)cc2)N1 (stereo not drawn) | -7.98% |
| O=C(NC(=O)c1ccccc1)Nc1ccccc1 | 17% |
| COC(=O)c1c(C(=O)OC)c2oc3ccccc3n2c1Cl | -15.3% |
| CC(=O)OCn1nnc2ccccc2c1=O | 11.5% |
| CN1CCCC(C(=O)c2ccc(-c3ccccc3)cc2)C1 (stereo not drawn) | -25.9% |
| CN(C)NC(=O)c1csnc1-c1c(Cl)cccc1Cl | 18.8% |
| Cc1c(C(=O)N2CCCC(C(F)(F)F)C2)oc2ccccc12 (stereo not drawn) | -17.2% |
| O=C(NCc1cccc(Br)c1)C1CC(c2cc(C(F)(F)F)cc(C(F)(F)F)c2)=NO1 (stereo not drawn) | -1.53% |
| Cn1c(C(F)(F)F)nc2c(=O)oc3ccccc3c21 | -7.65% |
| Cc1ccc(NC(=O)CSc2nc(N)c(-c3ccccc3)c(=O)[nH]2)cc1Cl | 22.9% |
| Cc1cc(C)cc(N2CCN(C(=O)N3CCOCC3)CC2)c1 | 10.4% |
| Cc1ccc(SC/C(O)=C(\C#N)c2nc3ccccc3n2C)cc1 | 6.24% |
| Cc1ccc(-c2n[nH]c(=S)n2Cc2ccccc2)cc1 | -1.34% |
| OCCN1CCN(Cc2nc(-c3cccc(Cl)c3)no2)CC1 | -11.6% |
| COn1c(C)c(C(C)=O)c2c3nonc3ccc21 | 4.6% |
| COc1cc(/C(=C/c2ccccc2)c2ccccc2)c2c(c1)oc1ccccc12 | 11% |

| SMILES | hERG current change (%, negative = inhibition) at 10uM |
| --- | --- |
| CC(=O)Nc1cccc(Oc2nc(-c3ccccn3)nc3ccccc23)c1 | 7.44% |
| Cc1ccc(-c2cc(C(=O)N3CCCC(C(F)(F)F)C3)c3ccccc3n2)o1 (stereo not drawn) | -29.8% |
| Cc1cccc(NC(=O)c2ccc(S(=O)(=O)N3CCOCC3)cc2)c1C | 15.6% |
| CCOc1ccc(NC(=O)CN2C(=O)NC3(CCCC3)C2=O)cc1S(=O)(=O)N1CCCCC1 | 12.1% |
| COc1ccccc1NC(=O)C(=O)NCC(c1ccco1)N1CCc2ccccc2C1 (stereo not drawn) | 11.1% |
| O=C1CC(c2ccccc2)NN1 (stereo not drawn) | 29.4% |
| CC(=N[C@@H]1CCCC[C@H]1N=C(C)c1ccccc1O)c1ccccc1O | 6.21% |
| Cl.O=C(O)CN1CCCCC1 | 7.87% |
| CC(=O)Nc1cc(C(C)C)c(O)c(C(C)C)c1 | -4.37% |
| CCOc1cccc(/C=C/C(=O)O)c1 | 14.6% |
| COc1ccc2c(C)cc(SCC(=O)N(C)C3CCS(=O)(=O)C3)nc2c1 (stereo not drawn) | -14% |
| COc1ccc(Cn2c(=O)[nH]c3cc(C(=O)NCCCOC(C)C)ccc3c2=O)cc1 | -4.13% |
| COc1ccc(-n2c(SCC(=O)N3CCCC3)nc3ccccc3c2=O)cc1 | 16% |
| Cc1cc(NC(=O)C2CC2)ncc1NC(=O)c1ccccn1 | 21.7% |
| O=C(COc1ccccc1)N(Cc1ccccc1)c1nc(-c2ccccc2)cs1 | 3.43% |
| CN(C)S(=O)(=O)c1cc(NC(=O)CSc2cccc[n+]2[O-])ccc1Cl | 9.64% |
| C#CCOCCOCCOCCNc1nc(N2CCN(C(=O)[C@H](CCC(=O)O)n3cc(C(N)Cc4ccc(O)cc4)nn3)CC2)nc(N2CCN(C(=O)[C@H](Cc3cc4ccccc4[nH]3)n3cc(C(N)[C@H](C)CC)nn3)CC2)n1.Cl (stereo partly drawn) | 5.43% |
| CCc1cc(=O)oc2c3c(cc(OCC(=O)NCc4cccnc4)c12)OC(C)(C)CC3 | -32.9% |
| COc1ccc(CN2CCNC(=O)C2CC(=O)N(C)CCC2CCOCC2)cc1OC (stereo not drawn) | 21.7% |
| Nc1ccc2c(c1)Cc1ccccc1-2 | -2.79% |
| O=C(O)C1CCCCC1C(=O)N1CCCC1 (stereo not drawn) | 19% |
